Test results: article PMC5749825
No constants are given. Whether binding was seen depends on the method and setting. In cells and extracts the contact can be indirect. Some results given as binding are weak or reduced against the parent protein; the word gives no strength. For some of these results: Tags and fused reporters may be left off the sequences shown. Blank lines part the entries; values can stand above or below the molecule they belong to.

Sequences of proteins named here, by UniProt entry; tags and fusion partners are left off.
UniProt Q93009: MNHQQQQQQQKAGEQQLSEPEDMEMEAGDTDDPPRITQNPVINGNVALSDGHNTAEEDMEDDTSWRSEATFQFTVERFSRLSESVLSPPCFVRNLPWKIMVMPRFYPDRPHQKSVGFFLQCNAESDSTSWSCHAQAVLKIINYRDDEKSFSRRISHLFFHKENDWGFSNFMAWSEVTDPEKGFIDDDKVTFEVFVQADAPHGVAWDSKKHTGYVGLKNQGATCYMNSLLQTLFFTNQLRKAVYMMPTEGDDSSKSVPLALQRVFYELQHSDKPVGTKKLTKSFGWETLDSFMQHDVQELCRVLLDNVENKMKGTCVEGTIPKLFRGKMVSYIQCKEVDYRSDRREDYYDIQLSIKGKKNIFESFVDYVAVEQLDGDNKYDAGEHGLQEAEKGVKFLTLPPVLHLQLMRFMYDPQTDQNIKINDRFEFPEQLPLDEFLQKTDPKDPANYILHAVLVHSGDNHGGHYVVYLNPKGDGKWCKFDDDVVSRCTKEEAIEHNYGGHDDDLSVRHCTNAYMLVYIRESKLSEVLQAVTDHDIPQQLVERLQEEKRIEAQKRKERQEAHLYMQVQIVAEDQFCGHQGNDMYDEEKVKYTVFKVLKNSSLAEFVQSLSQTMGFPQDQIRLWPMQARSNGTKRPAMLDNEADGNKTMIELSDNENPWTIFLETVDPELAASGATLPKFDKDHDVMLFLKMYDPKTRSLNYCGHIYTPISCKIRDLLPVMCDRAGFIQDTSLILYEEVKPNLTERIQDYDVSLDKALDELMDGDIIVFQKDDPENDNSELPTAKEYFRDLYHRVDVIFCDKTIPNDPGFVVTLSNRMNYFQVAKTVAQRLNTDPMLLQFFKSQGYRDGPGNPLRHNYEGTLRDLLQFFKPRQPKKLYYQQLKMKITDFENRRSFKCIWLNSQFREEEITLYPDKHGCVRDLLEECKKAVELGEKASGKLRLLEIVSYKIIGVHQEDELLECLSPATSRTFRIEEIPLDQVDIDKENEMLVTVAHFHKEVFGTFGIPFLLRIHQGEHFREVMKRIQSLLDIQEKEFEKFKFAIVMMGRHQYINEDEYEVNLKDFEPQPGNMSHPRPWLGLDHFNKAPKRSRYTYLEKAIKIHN
UniProt O75592: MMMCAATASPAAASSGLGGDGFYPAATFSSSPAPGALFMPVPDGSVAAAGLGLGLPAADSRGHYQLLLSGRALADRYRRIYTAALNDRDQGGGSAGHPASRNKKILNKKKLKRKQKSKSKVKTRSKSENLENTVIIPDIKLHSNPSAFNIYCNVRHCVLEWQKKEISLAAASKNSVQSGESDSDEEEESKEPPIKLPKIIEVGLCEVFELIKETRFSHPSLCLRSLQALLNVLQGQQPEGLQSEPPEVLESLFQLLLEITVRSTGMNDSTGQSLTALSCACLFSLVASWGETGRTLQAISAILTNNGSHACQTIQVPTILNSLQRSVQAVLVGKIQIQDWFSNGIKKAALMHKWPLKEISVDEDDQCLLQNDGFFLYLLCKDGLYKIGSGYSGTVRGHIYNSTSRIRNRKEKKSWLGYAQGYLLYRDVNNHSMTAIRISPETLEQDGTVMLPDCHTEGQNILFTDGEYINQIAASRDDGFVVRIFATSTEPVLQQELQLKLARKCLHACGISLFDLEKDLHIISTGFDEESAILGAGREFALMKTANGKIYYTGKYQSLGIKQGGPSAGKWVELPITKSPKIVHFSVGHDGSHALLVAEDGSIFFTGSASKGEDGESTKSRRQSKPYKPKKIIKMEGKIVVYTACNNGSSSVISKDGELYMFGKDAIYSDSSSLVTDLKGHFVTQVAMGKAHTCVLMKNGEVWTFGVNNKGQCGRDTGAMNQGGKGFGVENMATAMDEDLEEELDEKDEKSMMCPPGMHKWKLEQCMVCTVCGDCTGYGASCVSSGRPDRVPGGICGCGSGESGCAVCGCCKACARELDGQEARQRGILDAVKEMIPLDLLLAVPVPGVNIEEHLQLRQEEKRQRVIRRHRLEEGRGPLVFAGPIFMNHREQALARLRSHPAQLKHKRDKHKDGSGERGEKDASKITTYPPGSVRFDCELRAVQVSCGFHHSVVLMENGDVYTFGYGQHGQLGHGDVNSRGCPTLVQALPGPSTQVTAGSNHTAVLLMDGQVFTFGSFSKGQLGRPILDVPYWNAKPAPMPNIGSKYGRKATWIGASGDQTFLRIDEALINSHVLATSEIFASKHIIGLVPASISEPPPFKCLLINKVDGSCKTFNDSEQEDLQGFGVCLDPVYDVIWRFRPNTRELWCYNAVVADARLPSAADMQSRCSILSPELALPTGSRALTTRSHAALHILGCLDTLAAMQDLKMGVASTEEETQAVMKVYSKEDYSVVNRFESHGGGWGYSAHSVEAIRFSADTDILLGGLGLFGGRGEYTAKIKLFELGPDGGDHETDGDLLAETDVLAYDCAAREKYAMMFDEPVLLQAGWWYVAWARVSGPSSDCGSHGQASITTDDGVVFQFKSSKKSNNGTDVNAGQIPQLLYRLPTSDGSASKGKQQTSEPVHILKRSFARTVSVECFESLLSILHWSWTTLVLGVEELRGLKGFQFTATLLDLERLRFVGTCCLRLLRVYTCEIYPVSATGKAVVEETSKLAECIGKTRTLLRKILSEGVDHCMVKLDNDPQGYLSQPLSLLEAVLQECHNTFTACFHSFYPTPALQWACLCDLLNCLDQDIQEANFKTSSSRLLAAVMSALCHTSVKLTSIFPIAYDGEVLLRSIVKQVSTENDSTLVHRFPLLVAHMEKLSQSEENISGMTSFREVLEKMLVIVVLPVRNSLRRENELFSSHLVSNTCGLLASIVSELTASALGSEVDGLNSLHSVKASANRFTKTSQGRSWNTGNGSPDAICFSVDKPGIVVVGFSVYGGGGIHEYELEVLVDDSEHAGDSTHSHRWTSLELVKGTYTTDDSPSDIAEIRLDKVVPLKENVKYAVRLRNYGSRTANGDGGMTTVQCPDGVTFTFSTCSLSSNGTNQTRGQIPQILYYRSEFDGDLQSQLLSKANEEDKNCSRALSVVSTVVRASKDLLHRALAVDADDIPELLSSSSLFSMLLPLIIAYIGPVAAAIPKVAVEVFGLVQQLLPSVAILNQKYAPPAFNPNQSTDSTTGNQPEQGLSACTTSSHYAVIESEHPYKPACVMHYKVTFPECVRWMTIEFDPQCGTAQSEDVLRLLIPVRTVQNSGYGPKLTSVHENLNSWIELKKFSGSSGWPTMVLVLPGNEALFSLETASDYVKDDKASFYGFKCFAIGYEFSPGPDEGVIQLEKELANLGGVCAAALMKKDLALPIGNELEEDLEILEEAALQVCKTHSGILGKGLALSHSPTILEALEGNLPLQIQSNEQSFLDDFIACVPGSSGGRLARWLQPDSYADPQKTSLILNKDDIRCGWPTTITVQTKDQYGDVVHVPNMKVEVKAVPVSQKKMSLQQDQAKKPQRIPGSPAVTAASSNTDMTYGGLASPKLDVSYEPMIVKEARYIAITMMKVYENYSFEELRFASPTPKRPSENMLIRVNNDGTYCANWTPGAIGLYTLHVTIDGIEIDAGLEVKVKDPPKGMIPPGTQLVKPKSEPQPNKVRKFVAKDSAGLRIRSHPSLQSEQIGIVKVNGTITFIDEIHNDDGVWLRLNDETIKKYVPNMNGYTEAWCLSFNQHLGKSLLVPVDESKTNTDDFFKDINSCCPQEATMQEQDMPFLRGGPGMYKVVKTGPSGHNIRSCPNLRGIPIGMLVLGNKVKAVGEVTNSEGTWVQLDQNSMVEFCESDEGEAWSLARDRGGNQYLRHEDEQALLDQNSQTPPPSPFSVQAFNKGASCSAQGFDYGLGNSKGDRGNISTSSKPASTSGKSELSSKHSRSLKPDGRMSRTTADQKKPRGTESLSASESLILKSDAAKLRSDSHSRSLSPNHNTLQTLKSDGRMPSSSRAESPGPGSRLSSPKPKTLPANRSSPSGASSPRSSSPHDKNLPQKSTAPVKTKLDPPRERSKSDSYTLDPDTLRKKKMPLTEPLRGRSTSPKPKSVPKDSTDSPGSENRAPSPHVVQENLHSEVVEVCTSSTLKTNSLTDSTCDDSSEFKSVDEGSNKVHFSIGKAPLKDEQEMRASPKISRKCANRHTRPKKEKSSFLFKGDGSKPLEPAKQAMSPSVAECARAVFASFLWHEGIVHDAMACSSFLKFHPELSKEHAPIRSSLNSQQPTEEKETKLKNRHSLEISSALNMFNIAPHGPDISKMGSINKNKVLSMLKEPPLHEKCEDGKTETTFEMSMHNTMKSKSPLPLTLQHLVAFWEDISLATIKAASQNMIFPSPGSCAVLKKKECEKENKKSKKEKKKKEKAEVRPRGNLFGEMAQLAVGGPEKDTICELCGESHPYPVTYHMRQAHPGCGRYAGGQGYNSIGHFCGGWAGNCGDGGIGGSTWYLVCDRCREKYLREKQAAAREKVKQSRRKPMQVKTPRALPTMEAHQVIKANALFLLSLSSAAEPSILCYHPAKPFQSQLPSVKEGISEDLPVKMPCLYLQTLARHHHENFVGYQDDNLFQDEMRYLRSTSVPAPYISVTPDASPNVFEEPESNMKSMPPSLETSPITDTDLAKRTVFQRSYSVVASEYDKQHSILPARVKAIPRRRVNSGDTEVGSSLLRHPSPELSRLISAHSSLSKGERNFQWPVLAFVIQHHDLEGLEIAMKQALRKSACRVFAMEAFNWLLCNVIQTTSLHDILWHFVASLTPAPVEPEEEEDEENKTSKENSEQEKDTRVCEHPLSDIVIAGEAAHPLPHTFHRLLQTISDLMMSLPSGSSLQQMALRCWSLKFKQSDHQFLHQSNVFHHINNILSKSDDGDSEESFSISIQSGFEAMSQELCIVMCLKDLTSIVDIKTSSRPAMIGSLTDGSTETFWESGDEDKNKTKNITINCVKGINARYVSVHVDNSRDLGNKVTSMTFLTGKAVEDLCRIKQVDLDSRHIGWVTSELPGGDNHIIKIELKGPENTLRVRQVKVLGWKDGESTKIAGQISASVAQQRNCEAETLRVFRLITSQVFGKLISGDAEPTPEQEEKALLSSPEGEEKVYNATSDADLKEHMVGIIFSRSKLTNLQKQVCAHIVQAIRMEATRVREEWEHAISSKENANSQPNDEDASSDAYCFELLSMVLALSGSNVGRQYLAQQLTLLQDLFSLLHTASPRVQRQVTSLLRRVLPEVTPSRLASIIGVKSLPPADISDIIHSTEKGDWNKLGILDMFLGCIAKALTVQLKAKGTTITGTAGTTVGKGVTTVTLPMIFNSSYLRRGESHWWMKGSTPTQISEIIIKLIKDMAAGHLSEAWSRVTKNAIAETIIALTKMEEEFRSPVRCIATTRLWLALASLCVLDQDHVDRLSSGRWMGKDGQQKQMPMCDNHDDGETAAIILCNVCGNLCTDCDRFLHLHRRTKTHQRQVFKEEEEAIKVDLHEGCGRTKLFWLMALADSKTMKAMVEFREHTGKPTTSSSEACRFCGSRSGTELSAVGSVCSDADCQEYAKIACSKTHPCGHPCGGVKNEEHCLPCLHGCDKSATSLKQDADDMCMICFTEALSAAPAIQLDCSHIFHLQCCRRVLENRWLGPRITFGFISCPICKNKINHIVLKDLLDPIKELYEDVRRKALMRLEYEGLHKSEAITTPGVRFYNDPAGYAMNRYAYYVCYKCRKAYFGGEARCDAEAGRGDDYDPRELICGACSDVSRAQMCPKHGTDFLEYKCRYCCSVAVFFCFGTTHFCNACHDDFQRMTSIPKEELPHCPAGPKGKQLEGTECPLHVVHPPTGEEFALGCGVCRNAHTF

Experiments:
[1] = target: Flag-USP7 (Ubiquitin Specific Protease 7), transiently expressed in 293T cells (UniProt Q93009); experiment: co-IP; 293T cells transiently expressing the Flag-tagged bait (Flag-USP11 or Flag-USP7); Flag-IP; endogenous partners detected by western blot
[2] = target: Flag-tagged USP11, transiently expressed in 293T cells (UniProt P51784); experiment: as above
[3] = target: T1, Flag-tagged SPRYD3, transiently expressed in 293T cells (UniProt Q8NCJ5); experiment: co-IP; 293T cells co-transfected with Flag- and HA-tagged proteins, harvested 36h post-transfection; Flag-IP (anti-Flag agarose, CSK buffer with 0.5% NP40, 4°C, 4h); western blot
T1 sequence: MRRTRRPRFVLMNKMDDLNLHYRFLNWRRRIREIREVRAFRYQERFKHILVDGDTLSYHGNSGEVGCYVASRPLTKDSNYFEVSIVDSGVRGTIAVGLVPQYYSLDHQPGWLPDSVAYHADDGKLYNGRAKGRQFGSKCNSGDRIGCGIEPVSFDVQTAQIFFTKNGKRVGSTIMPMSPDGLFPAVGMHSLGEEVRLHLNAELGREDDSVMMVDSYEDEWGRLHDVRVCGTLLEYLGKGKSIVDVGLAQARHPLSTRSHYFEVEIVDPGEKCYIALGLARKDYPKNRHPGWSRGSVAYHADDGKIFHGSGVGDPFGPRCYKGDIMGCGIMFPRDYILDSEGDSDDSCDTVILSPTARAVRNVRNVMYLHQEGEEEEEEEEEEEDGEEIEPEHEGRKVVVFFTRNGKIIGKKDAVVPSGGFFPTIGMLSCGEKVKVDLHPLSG

[4] = target: T2, Flag-tagged KCTD6, transiently expressed in 293T cells (UniProt Q8NC69); experiment: as above
T2 sequence: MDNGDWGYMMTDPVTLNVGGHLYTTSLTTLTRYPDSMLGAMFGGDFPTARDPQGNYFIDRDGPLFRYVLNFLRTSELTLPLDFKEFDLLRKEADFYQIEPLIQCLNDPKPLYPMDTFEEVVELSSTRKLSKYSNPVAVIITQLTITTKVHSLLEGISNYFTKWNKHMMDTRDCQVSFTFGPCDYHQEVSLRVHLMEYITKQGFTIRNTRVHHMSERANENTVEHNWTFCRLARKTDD

[5] = target: T3, Flag-tagged RAE1, transiently expressed in 293T cells (UniProt P78406); experiment: as above
T3 sequence: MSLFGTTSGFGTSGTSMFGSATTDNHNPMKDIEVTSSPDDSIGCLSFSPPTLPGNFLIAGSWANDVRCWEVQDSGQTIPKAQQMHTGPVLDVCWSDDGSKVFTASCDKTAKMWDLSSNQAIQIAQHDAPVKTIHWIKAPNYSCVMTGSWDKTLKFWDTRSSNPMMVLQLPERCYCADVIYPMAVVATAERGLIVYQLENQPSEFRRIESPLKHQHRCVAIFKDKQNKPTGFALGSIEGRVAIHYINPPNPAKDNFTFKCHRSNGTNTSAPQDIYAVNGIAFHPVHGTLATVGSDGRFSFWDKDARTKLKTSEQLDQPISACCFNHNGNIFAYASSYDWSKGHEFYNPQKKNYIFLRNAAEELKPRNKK

[6] = target: Flag-tagged USP11, transiently expressed in 293T cells (UniProt P51784); experiment: as above
[7] = target: T4, RAE1 (form used in the co-precipitation told only in the discussion) (UniProt P78406); experiment: co-IP; co-precipitation told only in the discussion, no figure; constructs and cells not told
T4 sequence: T3 sequence

[8] = target: T5, SPRYD3 (form used in the co-precipitation told only in the discussion) (UniProt Q8NCJ5); experiment: as above
T5 sequence: T1 sequence

[9] = target: PAM (form used in the co-precipitation told only in the discussion) (UniProt O75592); experiment: as above

Molecule: HA-tagged USP11, transiently expressed in 293T cells (from UniProt P51784 1-963) (enzyme)
binding [3]: binds
binding [4]: binds
binding [5]: binds

B2: HA-tagged SPRYD3 (SPRY-domain containing protein 3), transiently expressed in 293T cells (protein, UniProt Q8NCJ5 1-442)
chain: T1 sequence
binding [6]: binds

B3: HA-tagged KCTD6 (potassium channel tetramerization domain containing 6), transiently expressed in 293T cells (protein, UniProt Q8NC69 1-237)
chain: T2 sequence
binding [6]: binds

B4: KCTD6 (form used in the co-precipitation told only in the discussion) (protein, UniProt Q8NC69 1-237)
chain: T2 sequence
binding [7]: no binding
binding [8]: no binding
binding [9]: no binding

B6: HA-tagged RAE1 (Ribonucleic Acid Export protein 1), transiently expressed in 293T cells (protein, UniProt P78406 1-368)
chain: T3 sequence
binding [6]: binds

Results, then the molecule that gave them:

binding [1]: binds
Molecule: endogenous USP11 of 293T cells (from UniProt P51784 1-963) (enzyme)

binding [1]: binds
binding [2]: binds
Molecule: endogenous PAM (Protein associated with Myc) of 293T cells (from UniProt O75592 1-4678)

binding [1]: binds
binding [2]: binds
B1: endogenous SPRYD3 of 293T cells (protein, UniProt Q8NCJ5 1-442)
chain: T1 sequence

binding [1]: binds
binding [2]: binds
B5: endogenous RAE1 of 293T cells (protein, UniProt P78406 1-368)
chain: T3 sequence
